Measured values taken from the supplement of paper PMC11417369.
± gives the standard deviation of the averaged measurements. Some of the results follow.

system: PfAP2-G AP2 domain (GST-tagged); assay: gcPBM binding intensity (ln(normalized median fluorescence intensity)); higher = stronger DNA binding
Method in brief: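 Plasmodium falciparum DNA-binding domains carrying a GST tag were expressed in E. coli and applied for 1 h, at about 25 μg on average, to an Agilent 4 × 180k array. The array held primer-extended double-stranded 36-bp intergenic genomic probes together with negative controls, and binding took place in 1× PBS with 1% milk, 0.2 mg/ml BSA, 0.5% salmon testes DNA and 0.03% Triton X-100. An Alexa488 anti-GST antibody detected bound protein, and the array was scanned at 488 nm. Binding intensity is taken as the highest Masliner-normalised natural-log median intensity across replicate spots of either probe orientation.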

| Sequence | gcPBM binding intensity (ln) |
| --- | --- |
| TTGTATTTACTATACACACACATACATACATACATA [CACACA_site4603] | 10.2 ± 0.27 |
| TATTCCCCCAAACACACACACACACCCACATACCAC [CACACA_site2304] | 11.1 ± 0.78 |
| TAAAAATAATATTAATGTACATTACATATTAATATA [XGTACX_site1019] | 10.8 ± 0.47 |
| CGTTACACAAAAATATGTACATATATACATATATAT [XGTACX_site4631] | 11.1 ± 0.64 |
| TATAAATATAAATACTGTACATTATATTATATAATA [XGTACX_site2480] | 11 ± 0.71 |
| ATATATATATATATGTGTACATATTAGTGATATAAT [XGTACX_site7161] | 11.4 ± 0.8 |
| AATGCGCATTTTTTTTTTTTTTTTTTTTTTTTTTTT [XGTACX_negctrl_site258] | 11.1 ± 0.7 |
| TTTCTTTTTTTTTTTTCATTGATCCATTTATGATTA [TGCATGCA_negctrl_site225] | 9.67 ± 0.071 |
| TTATAGGTTCTATACATATATTTATATATGTACAGA [CACACA_negctrl_site60] | 11.3 ± 0.81 |
| TTTTTAAAAATATACACACACAGATATTATAGATAT [CACACA_site6511] | 10.2 ± 0.11 |
| CAAGCTATGTATTCTACACACACATACACCCATATA [CACACA_site9133] | 10.4 ± 0.34 |
| TTCAATAGTAAGTATACACACATATATATATATAAA [CACACA_site2687] | 10.1 ± 0.26 |
| GAAAATATTATAGCACCACACACTTATTTTATATAT [CACACA_site2265] | 10.07 ± 0.042 |
| AACGTTAAAAAAAAAATATATATAAGGAGAAAGCAC [XGTACX_negctrl_site338] | 10.1 ± 0.29 |
| TATGCGTCTTGCCTTGCACACTTTTATGAAAAAAAA [CACACA_site5174] | 10.3 ± 0.42 |
| AGTATACATATATATACACACACACCGATATATATA [CACACA_site8357] | 9.88 ± 0.014 |
| TAAAAAAAATAAACGTGTACATAAAAATGAATATGT [XGTACX_site119] | 11.4 ± 0.81 |
| TTAATATATTAAATCTTACACACTAAAAAATATGTA [CACACA_site307] | 9.93 ± 0.2 |
| AAAAAAAAAAATATATTATTTTACTTGTTTATTTTT [GTGCAC_negctrl_site435] | 9.27 ± 0.25 |
| AATAATCAAATATTAAAAATTGTGCAAAAAAAAAAA [XGTACX_negctrl_site399] | 9.86 ± 0.14 |
| TCGTACTTGTATTATGCACACATATAATTAAACATA [CACACA_site9089] | 11.2 ± 0.98 |
| TTTGTTTTAAATATTATACACACGTAAAAGTATAAT [CACACA_site7954] | 10.7 ± 0.45 |
| TAATATTATATATAAACACACATACCCATGTAAATA [CACACA_site5170] | 10.12 ± 0.035 |
| TATGAAAAAATATATACACACATAATAAAGGTATAT [CACACA_site3737] | 9.91 ± 0.071 |
